88 compounds from PMC4336329 (PLoS ONE, 2015) can be followed below.

The whole screen tested about 310,000 compounds, of which about 14,000 (4.5%) showed an effect of 50% or more. The effect is printed as a negative number. This is one part of the list.
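Also: peak tail current of the secondary pulse compared with the same well before compound.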

The target of this test is human ether-à-go-go-related gene (hERG) potassium channel (human, UniProt Q12809). The test is described as follows: primary screen, population patch clamp on CHO cells stably expressing hERG.
Chain of human ether-à-go-go-related gene (hERG) potassium channel (Q12809 whole entry, looked up): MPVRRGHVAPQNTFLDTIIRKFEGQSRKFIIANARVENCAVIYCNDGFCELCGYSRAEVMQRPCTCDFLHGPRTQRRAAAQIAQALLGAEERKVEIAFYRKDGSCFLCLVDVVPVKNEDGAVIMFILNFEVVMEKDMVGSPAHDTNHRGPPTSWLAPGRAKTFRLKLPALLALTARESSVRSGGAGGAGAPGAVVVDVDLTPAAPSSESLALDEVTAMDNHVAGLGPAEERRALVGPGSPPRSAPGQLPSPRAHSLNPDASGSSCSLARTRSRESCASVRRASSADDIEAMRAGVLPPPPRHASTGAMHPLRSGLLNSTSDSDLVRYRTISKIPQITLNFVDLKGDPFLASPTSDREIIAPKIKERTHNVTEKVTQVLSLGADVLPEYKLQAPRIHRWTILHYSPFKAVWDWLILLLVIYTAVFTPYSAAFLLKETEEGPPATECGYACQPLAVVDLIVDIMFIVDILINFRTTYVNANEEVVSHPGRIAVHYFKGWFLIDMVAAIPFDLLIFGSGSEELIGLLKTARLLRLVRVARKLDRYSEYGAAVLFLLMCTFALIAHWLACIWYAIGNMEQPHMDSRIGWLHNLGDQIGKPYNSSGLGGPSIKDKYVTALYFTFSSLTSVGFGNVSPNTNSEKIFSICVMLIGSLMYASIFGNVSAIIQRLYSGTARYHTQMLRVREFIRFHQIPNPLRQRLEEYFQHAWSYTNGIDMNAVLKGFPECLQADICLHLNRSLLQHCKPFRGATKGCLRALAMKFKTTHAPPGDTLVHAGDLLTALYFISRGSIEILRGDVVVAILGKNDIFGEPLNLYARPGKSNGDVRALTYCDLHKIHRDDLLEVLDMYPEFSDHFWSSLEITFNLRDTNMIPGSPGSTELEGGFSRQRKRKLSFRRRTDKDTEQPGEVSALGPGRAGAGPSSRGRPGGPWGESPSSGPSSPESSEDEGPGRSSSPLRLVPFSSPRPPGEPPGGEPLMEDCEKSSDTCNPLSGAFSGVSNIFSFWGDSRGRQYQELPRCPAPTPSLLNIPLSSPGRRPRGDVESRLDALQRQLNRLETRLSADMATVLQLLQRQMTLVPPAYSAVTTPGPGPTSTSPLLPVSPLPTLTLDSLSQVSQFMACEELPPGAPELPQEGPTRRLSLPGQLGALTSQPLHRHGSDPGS
For `CCOc1cccc(C2c3c(oc4ccccc4c3=O)C(=O)N2c2ccccn2)c1` (stereo not shown), the “hERG current change (%, negative = inhibition) at 10uM” value turned out to be 1.85%.
`Cc1ccc(C)c(S(=O)(=O)N2CCN(C(=O)c3ccccn3)CC2)c1`: the “hERG current change (%, negative = inhibition) at 10uM” value is listed as -0.682%.
Take `CN(C)CCCN(C(=O)C1COc2ccccc2O1)c1nc2cc3c(cc2s1)OCO3.Cl` (stereo not shown): the “hERG current change (%, negative = inhibition) at 10uM” value is -64.4%.
Turning to `CCn1nc(C)cc1C(=O)N1CCCC(N2CCN(c3ccccc3OC)CC2)C1` (stereo not shown), the “hERG current change (%, negative = inhibition) at 10uM” value is on record as -5.6%.
For `COc1ccc(CN(CC2CCCO2)C(=O)c2cc3ccccc3oc2=O)cc1` (stereo not shown) the value was 7.96%; for `Cc1nnc(SCc2ccc(F)cc2)s1`, 3.71%.
The value for `O=C(Cn1cc2c(n1)CCCCC2)Nc1c(F)c(F)cc(F)c1F` was 9.2%; that for `Cc1oc(-c2ccccc2)cc1C(=O)Nc1cccc(C(=O)O)c1` was 3.78%.
For `COc1ccc(C2CC(c3ccccc3OC(C)=O)=NN2C(=O)/C=C/c2ccccc2)cc1` (stereo not shown) the value was -1.23%.
Consider `CC1CN(S(=O)(=O)c2ccc(C(=O)OCc3ccc(C#N)cc3)cc2)CC(C)O1` (stereo not shown), for which the “hERG current change (%, negative = inhibition) at 10uM” value is given as -3.58%.
As to `CSc1ccc(C2N=C(c3ccccc3)NO2)cc1` (stereo not shown), the “hERG current change (%, negative = inhibition) at 10uM” value was determined as 13.9%.
Turning to `Cc1cc(C)c(C(=O)C(C)OC(=O)c2ccc(Cl)nc2)cc1C` (stereo not shown), the “hERG current change (%, negative = inhibition) at 10uM” value turned out to be 12.2%.
For `Cc1cccc(C)c1NC(=O)CC(NCc1ccco1)C(=O)O` (stereo not shown) the value was 20.5%; for `Cc1ccccc1-n1cnc2cc(NCc3cccs3)ccc21`, -31%; for `COc1cc([N+](=O)[O-])cc(/C=N/NC(=O)Cn2nc(C)cc2C)c1O`, 17.5%.
The value for `CC(=O)N1CCN(Cc2nc3cc(NC(=O)c4ccccc4Cl)ccc3n2C)CC1` was -20.8%; that for `CCCCC(=O)Nc1ccc(C(=O)c2ccccc2)cc1` was -6.24%.
The value for `Cc1nn(-c2ccccc2)c(Cl)c1/C=N/NC(=O)c1nn(C)cc1[N+](=O)[O-]` was 1.53%.
For `O=C(CCCn1c(=O)[nH]c2cc(Cl)ccc2c1=O)NCCCN1CCN(c2ccc(F)cc2)CC1`, the “hERG current change (%, negative = inhibition) at 10uM” value is -64.9%.
The value for `CN(C)C(=O)Cn1c(=O)n(C)c2ccccc21` was 6.59%.
For `CN1CCN(CCNC(=O)Nc2ccccc2C(F)(F)F)CC1` the value was 3.26%; for `CCOc1ccc(CCNS(=O)(=O)c2ccc3c(c2)NC(=O)CC(=O)N3)cc1OCC`, 12.4%.
For `CCOC(=O)C1(CCOc2ccccc2)CCN(Cc2cc(OC)c(O)cc2Cl)CC1` the value was -69.2%; for `COc1ccc(NC(=S)N/N=C/c2ccc(F)c(F)c2)cc1`, 7.65%; for `CCOc1ccc(CN2CCNC(=O)C2CC(=O)N(C)C2CCCCC2)cc1` (stereo not shown), 6.66%.
`C[C@@H](CN1CCC(Cc2ccccc2)CC1)[C@@H](O)c1ccc(O)cc1.Cl`: the “hERG current change (%, negative = inhibition) at 10uM” value is on record as -71.3%.
The value for `CN(c1ccccc1)S(=O)(=O)c1cccc(NC(=O)Cn2cnc3c2c(=O)n(C)c(=O)n3C)c1` was -52.6%; that for `Cc1ccc(N(C(=O)Cn2nnc(-c3ccc(F)cc3)n2)C(C(=O)NC(C)(C)C)c2ccncc2)cc1` (stereo not shown) was -42.1%.
The value for `CSc1ccccc1NC(=O)CSCc1ccc(Br)cc1` was 5.69%.
For `Cc1cccn2c(=O)c3cc(C(=O)NC4CCCCC4)c(=N)n(CCN4CCOCC4)c3nc12` the value was -87%; for `COc1ccc(N=C2C(=Nc3ccc(OC)cc3)N(c3ccc(OC)cc3)C(=S)N2C(=O)c2ccc(OC)cc2)cc1`, -15.1%; for `CC(C)(C)NS(=O)(=O)c1ccc(CCC(=O)N2CCCC2)cc1`, 19.8%.
In the case of `COc1ccc(S(=O)(=O)NC2CC(C)(C)NC(C)(C)C2)cc1C(C)C`, the “hERG current change (%, negative = inhibition) at 10uM” value is -15.1%.
The value for `COCCNc1nc(C)cc(-c2cc(C(=O)NC3CCCC3)on2)n1` was -0.263%.
For `O=C1C2CC=C(Cl)CC2C(=O)N1CN(Cc1ccco1)CN1C(=O)C2CC=C(Cl)CC2C1=O` (stereo not shown) the value was 8.81%; for `COc1ccccc1/C=C/C(=O)N1CCCC1`, 0.997%.
Take `CN(C)C(=O)c1cc(Br)ccc1Cl`: the “hERG current change (%, negative = inhibition) at 10uM” value was 8.23%.
For `O=C(CCC(=O)N1CCOc2ccccc21)Nc1ccc(F)cc1F` the value was -7.25%.
In the case of `Cc1cc(=O)[nH]c(SCC(=O)Nc2ccc(Cl)cn2)n1`, the “hERG current change (%, negative = inhibition) at 10uM” value was determined as 18.5%.
As to `COc1cc(C2NC(=O)NC(C)=C2C(=O)OCc2ccc(C)cc2)cc(OC)c1O` (stereo not shown), the “hERG current change (%, negative = inhibition) at 10uM” value is on record as -14.6%.
The value for `CCOC(=O)c1[nH]c(C)c(C(=O)OCC(=O)N2CCc3ccccc32)c1C` was 6.23%.
The value for `Cc1ccc2c(CN3CCN(Cc4ccccc4)CC3)cc(=O)oc2c1C` was -55.3%; that for `O=C(CN1CCN(c2ccccc2)CC1)NC(=O)NCc1ccco1` was 9.72%; that for `O=C(Nc1ccccc1OC(F)F)C1CC(=O)N(Cc2ccccc2)C1` (stereo not shown) was 10%.
For `COCc1nnc(NC(=O)CS(=O)(=O)Cc2ccccc2)s1` the value was 20.4%; for `CCCn1nc(NS(=O)(=O)c2ccccc2)c2cc3ccccc3nc21`, 0.823%.
For the compound `CCOC(=O)CCSc1nc(C)c2cc(C)ccc2n1`, the “hERG current change (%, negative = inhibition) at 10uM” value was determined as 3.63%.
As to `CC1=NN(C(=O)c2ccc(Br)cc2)C(O)(c2ccccc2)C1` (stereo not shown), the “hERG current change (%, negative = inhibition) at 10uM” value came to 0.159%.
Consider `N#CCc1cccnc1Sc1ccc(Cl)cc1`, for which the “hERG current change (%, negative = inhibition) at 10uM” value is reported as 4.17%.
The value for `CN(C)CCCNCCNC(=O)/C=N\O.Cl` was -65.4%.
For the compound `O=C(O)c1ccccc1-c1ccccc1C(=O)Nc1cccc(O)c1`, the “hERG current change (%, negative = inhibition) at 10uM” value is on record as 20.2%.
For `Cc1cccc(NC(=S)NNC(=O)c2csc(C(C)C)c2)c1` the value was 2.52%; for `CCCCN(C(=O)c1cc(CC)c(C)s1)c1c(N)n(CCC)c(=O)[nH]c1=O`, -20.8%; for `CCN(CC)S(=O)(=O)c1ccc2c(c1)c(=O)c(C(=O)NCc1cccs1)cn2C`, -2.97%.
For `CCOc1ccc(OCCC(=O)N2CCN(S(=O)(=O)c3ccc(OCC)cc3)CC2)cc1` the value was -6.09%.
For `COC(=O)C1CCN(C(=O)c2ccc3nccnc3c2)CC1` the value was 27.6%; for `Fc1ccc(NC(=S)NCc2ccccc2Cl)cc1`, 8.57%.
`CCC(=O)Nc1nnc(SCc2cccc(F)c2)s1`: the “hERG current change (%, negative = inhibition) at 10uM” value turned out to be 6.2%.
The value for `CCOc1ccc(N2C(=O)CC(N(Cc3ccco3)C(=O)CC)C2=O)cc1` (stereo not shown) was -0.571%; that for `CCNc1nc(NC(C)C)nc(ON=C(C)C)n1` was 7.4%.
For `COC(=O)c1cc(S(=O)(=O)N2CCN(C3CCCCC3)CC2)c[nH]1` the value was -14.6%; for `CCOC(=O)Cn1c(=O)cc(C)c2ccccc21`, 26.2%.
For `N#Cc1nc(Cc2ccccc2)oc1NCCc1ccccc1` the value was -22.6%.
In the case of `C/C=C/C1=CC(=O)C[C@H](c2ccc(OC)c(OC)c2)C1`, the “hERG current change (%, negative = inhibition) at 10uM” value is recorded as -5.28%.
As for `COc1ccc(Nc2c3c(nc4c(-c5ccccc5)c(C)nn24)CCC3)cc1`, the “hERG current change (%, negative = inhibition) at 10uM” value is listed as -0.517%.
As to `COc1ccccc1CNC(=O)COc1ccccc1C`, the “hERG current change (%, negative = inhibition) at 10uM” value came out at 7.53%.
Consider `NS(=O)(=O)c1cccc(NC(=O)CCS(=O)(=O)c2ccc(Cl)cc2)c1`, for which the “hERG current change (%, negative = inhibition) at 10uM” value stood at 7.53%.
For `COC(=O)/C(=N\Nc1ccccc1)Sc1nnc(-c2ccc(OC)cc2)n1C` the value was -25.9%; for `OCC(O)/C=N/Nc1nc(N2CCCCC2)nc(N2CCCCC2)n1` (stereo not shown), 3.85%.
The value for `O=C(CC(c1ccc(F)cc1)c1ccco1)N1CCCC1` (stereo not shown) was -5.5%.
The value for `Cc1ccc2nc(SCC(=O)Nc3cc([N+](=O)[O-])ccc3F)[nH]c2c1` was -57.4%; that for `O=C(CC1CCCC1)OCn1nnc2ccccc2c1=O` was -15.7%; that for `COc1ccc(OC)c(N(CC(=O)Nc2ccc3c(c2)OCO3)S(=O)(=O)c2ccccc2)c1` was -6.82%.
Consider `O=C(O)CCc1nn2c3ccccc3n(CC(=O)c3cccs3)c2nc1=O`, for which the “hERG current change (%, negative = inhibition) at 10uM” value is on record as 19.3%.
Consider `CCN(CC)Cc1c(C(=O)N/N=C/c2cccc(OCc3cccc(Cl)c3)c2)nnn1-c1nonc1N`, for which the “hERG current change (%, negative = inhibition) at 10uM” value is reported as -1.32%.
With `Cc1ccc(C)c(N2CCN(CC(=O)Nc3ccc([N+](=O)[O-])cc3C(=O)Nc3ccccc3F)CC2)c1`, the “hERG current change (%, negative = inhibition) at 10uM” value is recorded as -18%.
The value for `COc1ccc(-n2cc(-c3ccccc3)nc2SC)cc1` was 19.2%; that for `CCn1c(SCc2nc3ccccc3s2)nc2cc(S(=O)(=O)N3CCOCC3)ccc21` was -13%; that for `Cc1ccc(S(=O)(=O)NCC(=O)N(CC(=O)NCC2CCCO2)C2CCCC2)cc1` (stereo not shown) was -1.28%.
For `O=C(Cc1ccccc1)NNC(=O)Cc1ccccc1` the value was 3.99%.
For `Cc1ccc(Cl)cc1N1CCN(C(=O)COc2ccc(S(=O)(=O)NC(C)C)cc2)CC1` the value was -4.92%; for `O=[n+]1cc(-c2ccc(F)cc2)n([O-])c2c1CCC2`, 10.5%.
Take `COc1ccc(CN2CCC(=O)N(CCO)CC2)cc1OC`: the “hERG current change (%, negative = inhibition) at 10uM” value came to 3.26%.
The value for `CCCc1cc(=O)oc2cc(OCC(=O)NC(Cc3ccc(Cl)cc3)C(=O)O)ccc12` (stereo not shown) was 15.3%.
For `Cc1nn(C(C)(C)C)c(OC(=O)c2cccs2)c1Sc1ccccc1` the value was -8.8%; for `O=C(Nc1ccccc1Oc1ccccc1)c1cccs1`, -14.5%; for `Cc1cccc(N=C2NC(=O)CS2)c1C`, 2.78%.
For the compound `O=C1CCN(CCc2ccccc2)CCN1CCSc1ccccc1`, the “hERG current change (%, negative = inhibition) at 10uM” value is given as -76.4%.
